In publication PMC4336329 (PLoS ONE, 2015):
The campaign covered roughly 310,000 compounds. About 2,200 (0.71%) showed an effect of 50% or more. Effects have a minus sign here. The list shows a part of the results.

Target: human ether-à-go-go-related gene (hERG) potassium channel (human, UniProt Q12809)
Assay: primary screen, population patch clamp on CHO cells stably expressing hERG

Sequence of human ether-à-go-go-related gene (hERG) potassium channel (Q12809 whole entry, looked up): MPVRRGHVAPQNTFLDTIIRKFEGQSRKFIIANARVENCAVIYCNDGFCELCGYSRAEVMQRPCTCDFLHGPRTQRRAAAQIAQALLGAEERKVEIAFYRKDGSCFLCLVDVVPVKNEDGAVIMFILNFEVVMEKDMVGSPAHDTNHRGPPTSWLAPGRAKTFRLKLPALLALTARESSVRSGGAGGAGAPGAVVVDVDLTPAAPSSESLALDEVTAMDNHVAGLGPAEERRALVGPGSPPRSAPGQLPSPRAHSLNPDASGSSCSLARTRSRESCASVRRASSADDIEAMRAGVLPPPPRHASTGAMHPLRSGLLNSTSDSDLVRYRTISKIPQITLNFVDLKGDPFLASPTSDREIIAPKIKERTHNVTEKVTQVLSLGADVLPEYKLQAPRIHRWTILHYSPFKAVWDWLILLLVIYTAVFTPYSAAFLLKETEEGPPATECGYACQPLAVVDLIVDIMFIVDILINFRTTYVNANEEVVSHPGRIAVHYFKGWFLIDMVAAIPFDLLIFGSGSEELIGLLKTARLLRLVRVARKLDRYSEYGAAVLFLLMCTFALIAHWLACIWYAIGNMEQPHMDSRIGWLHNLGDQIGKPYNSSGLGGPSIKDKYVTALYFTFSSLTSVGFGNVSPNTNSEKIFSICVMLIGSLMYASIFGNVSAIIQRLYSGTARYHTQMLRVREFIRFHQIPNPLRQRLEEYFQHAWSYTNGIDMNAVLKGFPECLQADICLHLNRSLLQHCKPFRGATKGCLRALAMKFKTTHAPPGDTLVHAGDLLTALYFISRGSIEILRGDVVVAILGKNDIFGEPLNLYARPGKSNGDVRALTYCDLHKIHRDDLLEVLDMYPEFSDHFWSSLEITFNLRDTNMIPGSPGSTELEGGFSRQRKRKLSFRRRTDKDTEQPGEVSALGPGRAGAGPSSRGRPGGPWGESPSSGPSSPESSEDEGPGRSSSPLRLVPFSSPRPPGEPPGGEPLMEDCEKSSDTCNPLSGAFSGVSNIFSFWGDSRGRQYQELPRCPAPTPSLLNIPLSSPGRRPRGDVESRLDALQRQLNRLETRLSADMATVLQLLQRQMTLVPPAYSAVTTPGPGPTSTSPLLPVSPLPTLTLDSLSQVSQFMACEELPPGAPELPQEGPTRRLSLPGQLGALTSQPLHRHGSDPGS

SMILES	hERG current change (%, negative = inhibition) at 1uM [%]
COC(=O)c1ccc(Oc2c(F)c(F)nc(N3CCOCC3)c2F)cc1	14.6
CCN(CC)CCOC(=O)c1cc2cc(COC)ccc2o1.CI	9.98
O=C(COC(=O)c1ccc(-c2nnc(-c3ccccc3)o2)cc1)c1ccccc1	12.4
COC(=O)C(C(=O)Nc1cccc(Cl)c1C)C1CCCC1 (centres unmarked)	5.04
Cn1nc(C(C)(C)C)cc1C(=O)NNC(=O)c1ccccc1Cl	11.8
COCCN1C=C(C(=O)OC)C(c2cc3c(cc2Br)OCO3)C(C(=O)OC)=C1	5.87
COc1ccc(C2(CN(C(C)=O)C(C)=O)CCCC2)cc1OC	9.22
N#Cc1ccc(Oc2ccc(S(=O)(=O)N3CCCC3)cn2)cc1	7.09
COC(=O)CN(Cc1ccco1)S(=O)(=O)c1ccccc1	0.396
CCn1c(-c2ccccc2Cl)nn(CC(=O)Nc2ccccc2OC)c1=S	14
CCOC(=O)C1CCCN(Cc2ccc(OCc3ccccc3)cc2)C1.O=C(O)C(=O)O (centres unmarked)	-3.15
Cc1c(C(=O)OC(C)C)sc(N)c1C(=O)OC(C)C	1.71
COc1ccccc1N1CCN(c2nc(C)nc3c2oc2ccccc23)CC1.Cl	9.97
CC1CN(CCOCCSc2ccccc2)CC(C)O1.Cl (centres unmarked)	3.85
O=C(CC(=O)N/N=C\c1ccc(F)cc1)NCCc1ccccc1	21.6
CC1CCN(C(=O)c2ccc3c(c2)NC(=O)CN3)CC1	11.2
COc1ccccc1N1CCN(C(c2cccs2)C(C)NC(=O)c2ccncc2)CC1 (centres unmarked)	6.16
OCCNCCCCCOc1ccc(F)cc1	7.98
O=C1NCCN1Cc1ccc(F)cc1	-1.03
COc1cccc(/C=N/NC(=O)c2c(C)nc3ccc(Cl)cn23)c1O	15.1
Cc1cccc(C)c1NC(=O)CN(C)C(=O)c1ccccc1C(=O)N(C)Cc1ccccc1	11.3
COc1ccc(C(=O)Nc2ccc3c(c2)OCCO3)cc1Br	14.3
CCc1cc2cc(C(=O)N3CCN(Cc4ccccc4)CC3)sc2s1	3.36

SMILES	hERG current change (%, negative = inhibition) at 1uM [%]
CCOC(=O)C1(CCOC)CCN(C(=O)c2ccc(CSC)o2)CC1	8.08
CCc1ccccc1NC(=O)c1cc(-c2ccc(F)cc2)on1	12.6
O=C1COc2ccc(C(=O)COC(=O)/C=C/c3ccco3)cc2N1	13.9
COc1ccc(-c2cc(C(F)(F)F)nc(SCC(=O)NCc3cccs3)n2)cc1	10.3
COc1cccc(OC)c1C(=O)NNC(=O)c1ccc(F)cc1	15.8
COc1ccc(-n2c(=O)[nH]c3c(C(N)=O)nc(C4CCCCC4)nc32)cc1	-0.925
CC(C)(C)C(=O)Nc1ccccc1C(=O)NCc1cccnc1	17.9
O=c1c2ccccc2cnn1Cc1n[nH]c(=S)n1-c1ccccc1F	12.2
Fc1cccc2sc(N3CCOCC3)nc12	10.6
COc1cc(-c2cc(=O)c3c(O)cc(O)cc3o2)ccc1O	15.5
O=C(Nc1ccccc1[N+](=O)[O-])c1cncc(Br)c1	15
CC(=O)Nc1c(NC(=O)CC#N)[nH]c2c(c1=O)c(=O)n(C)c(=O)n2C	9.14
CCCCC(=O)N/N=C/c1c(O)n(Cc2ccco2)c(=O)[nH]c1=O	16.9
OC(c1ccc(Cl)cc1)c1nnc(-c2ccccc2)o1 (centres unmarked)	3.02
Nc1cc([N+](=O)[O-])ccc1Nc1ccc(O)cc1	6.98
CSc1nc(N)nc(SCC(=O)Nc2ccc(Cl)cc2)c1C#N	-5.11
O=C(NC(=S)Nc1nc(-c2cccc3ccccc23)cs1)c1cc2ccccc2o1	3.65
CCC[C@@H]1CCCC/C=C\CCCC(=O)OCCN1C(=O)OC(C)(C)C	15.4
Cc1ccc(S(=O)(=O)N2CCCC(C(=O)NCC(C)C)C2)cc1 (centres unmarked)	10.9
COc1cc(C2C3=C(CC(c4ccco4)CC3=O)Nc3ccccc3N2C(C)=O)cc(OC)c1OC (centres unmarked)	6.46
O=S(=O)(Nc1ccc2c(c1)OCCO2)c1cccs1	14.4
CN(NC(=O)c1ccc(Cl)cc1)c1cccc(Cl)n1	2.41
CC12CC[C@H]3[C@@H](CCC4(O)C[C@H](O)CCC34/C=N/NC(=O)Cc3ccccc3)C1(O)CCC2C1=CC(=O)OC1 (some centres unmarked)	12.4

SMILES	hERG current change (%, negative = inhibition) at 1uM [%]
Cc1cccc([N+](=O)[O-])c1NC(=O)CSc1nnc2ccccn12	1.83
Cc1ccc(C(=O)NCc2nnc(SCC(=O)Nc3ccccc3)n2C)cc1	2.07
COc1cc(S(=O)(=O)N2CCCCCC2)c(OC)cc1Br	8.86
Cc1ccc(CN2C(=O)CCC2C(=O)NCCN2CCN(c3cccc(Cl)c3)CC2)cc1 (centres unmarked)	0.186
COc1ccc(-c2nc(C)ncc2-c2ccccc2)c(O)c1	14
CNc1oc(-c2ccccc2F)nc1S(=O)(=O)c1ccc(C)cc1	12.3
CCc1cc2c(SCC(=O)N3CC(=O)Nc4ccccc43)ncnc2s1	2.28
Cn1c(Nc2cccc(Cl)c2)nc2ccccc21	18.2
CCCCOc1ccc(/C=C/C(=O)OCC(=O)c2c(N)n(C)c(=O)n(C)c2=O)cc1OCC	9.43
O=c1c2c(nc3n1CCCCC3)-c1ccccc1CC21CCCC1	-9.28
O=C(Nc1ccc(Cn2cccn2)cc1)c1ccc(COc2ccc(Br)cc2)cc1	8.95
O=C(CN1CCCCC1)Nc1nnc(-c2ccccc2)s1	-1.12
O=C(CSC1=Nc2ccccc2C2=NC(c3ccccc3)C(=O)N12)NC1CCCCC1 (centres unmarked)	3.01
CC(=O)Nc1ccc(S(=O)(=O)N2CC(=O)NC(=O)C2)cc1	16.1
Cc1ccc(C)n1-c1cccc(C(=O)Nc2ccccc2)c1	5.12
COc1ccccc1CNC(=O)CCn1c(=O)oc2ccccc21	10.4
COc1ccc2c(c1)[nH]c1c(=O)n(/N=C/c3ccc(OC)c(CN4CCCC4)c3)cnc12	-29.6
Oc1ccc(/C=N/NC2=NCCCCC2)c(O)c1	1.62
CNC(=S)N(CCc1c(C)[nH]c2ccccc12)Cc1ccco1	6.17
C/C=C/C1=CC(=O)C[C@H](c2ccc(Cl)cc2)C1	12.4
CCc1nnc(NC(=O)CSc2nnc(-c3c[nH]c4ccccc34)n2C)s1	2.77
Cc1cc(C(=O)OCC(=O)Nc2cccnc2Cl)c2ccccc2n1	5.62
CCOC(=O)N1CCN(c2nc3ccccc3n3cnnc23)CC1	8.8

SMILES	hERG current change (%, negative = inhibition) at 1uM [%]
CC(C)CNC(=O)C(=O)Nc1cc2c3c(c1)C(C)C(=O)N3CCC2 (centres unmarked)	6.51
Cc1cc(C)c2nncn2n1	13.2
C=CCOC(=O)C1=C(C)Nc2nnnn2C1c1cccc(OC)c1OC (centres unmarked)	1.54
Cc1ccc(N(CC(O)Cn2c3ccccc3c3ccccc32)S(C)(=O)=O)cc1 (centres unmarked)	11
Cc1ccc(S(=O)(=O)N2C(=O)CCC2C(=O)N2CCCCC2)cc1 (centres unmarked)	11.2
Cc1ccc(CN2C(=O)C(Cc3ccccc3)Nc3ncnc(N4CCCCC4)c32)cc1.O=C(O)C(F)(F)F (centres unmarked)	12.5
CN1CCC(N(C)C(=O)/C=C/c2cn(-c3ccccc3)nc2-c2cccs2)CC1.Cl	-3.86
Cc1cccc(CS(=O)(=O)Cc2ccc(C(=O)NCCc3ccccc3)o2)c1	11
Cc1ccc(S(=O)(=O)N2CCCCC2)cc1C(=O)N(CCc1ccccc1)Cc1ccccc1	12.2
COC(=O)[C@@H]1C[C@H]2CC[C@H](O)C[C@H]2N1Cc1ccc(-c2ccccc2)cc1	18
CCC(C)(C)NC(=O)CN(C(=O)CCC(=O)Nc1cc(C)ccn1)c1ccc2c(c1)OCCO2	10.6
CC(C)[N+]1(C)[C@@H]2CC[C@@H]1CC(OC(=O)C(CO)c1ccccc1)C2.[Br-] (some centres unmarked)	8.36
COc1cc2nc(SCC(=O)NCc3ccco3)n(Cc3ccc(Cl)cc3)c(=O)c2cc1OC	6.06
Fc1ccc(CSc2ccc3nnc(-c4ccccn4)n3n2)cc1	-92.9
Cc1ccccc1OCC(O)Cn1c(=N)n(Cc2ccccc2)c2ccccc21.Cl (centres unmarked)	-48.4
COc1cc(NC(=O)CCS(=O)(=O)c2ccc3nc(C)sc3c2)cc(OC)c1OC	15.8
Cc1ccc(NC(=S)Nc2cccc(-c3n[nH]c(=S)o3)c2)cc1	17.7
COc1ccccc1C(C[N+](=O)[O-])c1c[nH]c2ccccc12 (centres unmarked)	6.53
CC(=O)Nc1ccc(OCc2nnc(-c3ccccc3)o2)cc1	4.98
Cc1cccc2cc(C(c3nnnn3Cc3ccc4c(c3)OCO4)N3CCCC3)c(=O)[nH]c12 (centres unmarked)	2.16
